# Test results as given in the supplement of paper PMC4604168 (melanoma cell lines).
# Some of the results follow. Many values rest on one well or one pass, so single values are uncertain.
# Assays:
# Assay in all cases: cell count relative to DMSO control; melanoma cells; higher = more viable cells
# Details in all cases: library dose: low library concentration; 72 h
# [1] = test system: WM115
# [2] = test system: WM1716
# [3] = test system: WM1745
# [4] = test system: WM3526
# [5] = test system: WM3619
# [6] = test system: WM451Lu
# 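Also: cell number obtained by counting DAPI-stained nuclei in high-throughput microscope images with image analysis software, screen run in 1,536-well plates.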
Structure (SMILES),cell count [1],cell count [2],cell count [3],cell count [4],cell count [5],cell count [6]
"O=c1[nH]nc(Sc2ncc([N+](=O)[O-])s2)n1-c1ccc2c(c1)OCCO2 + O=c1cc(-c2cccc3c2Sc2ccccc2S3)oc(N2CCOCC2)c1 [KU55933] (first compound 0.2 µM, partner dose 1 µM)",90.6%,95.3%,106%,80.7%,87.6%,87.2%
"O=C(O)c1ccc(-c2c[nH]c3ncc(-c4ccccc4)cc23)cc1C1CCCC1 + O=C1NC(=O)/C(=C/c2ccc(-c3ccc(F)cc3O)o2)S1 [AS252424] (first compound 0.16 µM, partner dose 1 µM)",103%,102%,87.1%,95.7%,105%,105%
"O=c1[nH]nc(Sc2ncc([N+](=O)[O-])s2)n1-c1ccc2c(c1)OCCO2 + CCCS(=O)(=O)Nc1ccc(F)c(C(=O)c2c[nH]c3ncc(Cl)cc23)c1F [PLX4720] (first compound 0.2 µM, partner dose 0.08 µM)",90.7%,136%,89.1%,83.9%,96.6%,103%
"CC1(C)NC(=O)N(c2ccc([N+](=O)[O-])c(C(F)(F)F)c2)C1=O [nilutamide] + Oc1cc(-c2nc(-c3ccccc3)[nH]c2-c2ccncc2)ccc1Cl [L779450] (first compound 1 µM, partner dose 0.2 µM)",88.1%,95.9%,94.2%,62%,201%,98.6%
"Cn1cncc1[C@@](N)(c1ccc(Cl)cc1)c1ccc2c(c1)c(-c1cccc(Cl)c1)cc(=O)n2C [tipifarnib] + CN(C)S(=O)(=O)c1ccc2c(c1)/C(=C/c1cc3c([nH]1)CCCC3)C(=O)N2 [SU6656] (first compound 0.01 µM, partner dose 0.4 µM)",53%,87.2%,99.9%,89.3%,78.6%,86%
"COc1cc(Nc2ncc(F)c(Nc3ccc4c(n3)NC(=O)C(C)(C)O4)n2)cc(OC)c1OC [Tamatinib] + COc1ccc(-c2ccc3c(N4CCOCC4)nc(N4C[C@@H](C)O[C@@H](C)C4)nc3n2)cc1CO [KU0063794] (first compound 0.4 µM, partner dose 0.02 µM)",86.6%,87.4%,65.4%,80.7%,88.4%,86.5%
"O=C(Nc1cccc(Cl)c1)Nc1ncc(CCNc2ncnc3ccsc23)s1 + O=c1cc(-c2cccc3c2Sc2ccccc2S3)oc(N2CCOCC2)c1 [KU55933] (first compound 0.0008 µM, partner dose 1 µM)",85.2%,102%,85.8%,88.2%,108%,93.7%
"C[C@@H]1CCN(C(=O)CC#N)C[C@@H]1N(C)c1ncnc2[nH]ccc12 + CC(C)CCN1c2nc(Nc3cc(F)c(O)c(F)c3)ncc2N(C)C(=O)C1C [BID1870] (first compound 1 µM, partner dose 0.2 µM)",109%,98.4%,92%,93.1%,103%,136%
"Cn1cncc1[C@@](N)(c1ccc(Cl)cc1)c1ccc2c(c1)c(-c1cccc(Cl)c1)cc(=O)n2C [tipifarnib] + COc1ccc2c(c1)CCC1C2CCC2(C)C(NCCCCCCN3C(=O)C=CC3=O)CCC12 [U73122] (first compound 0.01 µM, partner dose 0.4 µM)",93%,80.3%,85.1%,96.7%,84.3%,97.8%
"O=C(Nc1cccc(Cl)c1)Nc1ncc(CCNc2ncnc3ccsc23)s1 + Cn1cncc1[C@@](N)(c1ccc(Cl)cc1)c1ccc2c(c1)c(-c1cccc(Cl)c1)cc(=O)n2C [tipifarnib] (first compound 0.0008 µM, partner dose 0.01 µM)",60.9%,89.6%,78.6%,79%,93%,78%
"O=c1[nH]nc(Sc2ncc([N+](=O)[O-])s2)n1-c1ccc2c(c1)OCCO2 + O=C1NC(=O)/C(=C/c2ccc(-c3ccc(F)cc3O)o2)S1 [AS252424] (first compound 0.2 µM, partner dose 1 µM)",91.8%,96.7%,95.5%,101%,117%,112%
"O=C(Nc1cccc(Cl)c1)Nc1ncc(CCNc2ncnc3ccsc23)s1 + CN(C)S(=O)(=O)c1ccc2c(c1)/C(=C/c1cc3c([nH]1)CCCC3)C(=O)N2 [SU6656] (first compound 0.0008 µM, partner dose 0.4 µM)",45.4%,116%,94%,87.7%,125%,90.6%
"C[C@@H]1CCN(C(=O)CC#N)C[C@@H]1N(C)c1ncnc2[nH]ccc12 + COc1ccc(-c2ccc3c(N4CCOCC4)nc(N4C[C@@H](C)O[C@@H](C)C4)nc3n2)cc1CO [KU0063794] (first compound 1 µM, partner dose 0.02 µM)",94.7%,104%,84.7%,92.5%,120%,87.6%
